PubChem BioAssay AID485294 (National Center for Advancing Translational Sciences (NCATS), 2010)
The whole screen tested about 370,000 compounds, of which about 150 (0.041%) were called active. This list was built around the results that the source calls inconclusive (neither active nor inactive); the mix of calls is not that of the screen. Calls come from the whole dose curve; as a rule, active = well fitted inhibition curve with a large enough effect; inconclusive = small, poorly fitted or top-dose-only effect; inactive = flat fitted curve, though single readings scatter. No potency is given beside an inconclusive call; the fits are too rough.

Target: Beta-lactamase (Escherichia coli (strain K12)) (UniProt P00811)
Assay: qHTS Inhibitors of AmpC Beta-Lactamase (assay with detergent); note: nearly all actives have a fitted effect of over 25% in size;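 for activity change, negative = inhibition: 0% = no-compound wells and -100% = no-enzyme wells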
Settings: AmpC hydrolysis of nitrocefin, absorbance 480 nm, 0.01% Triton; activity change, negative = inhibition: at 114 µM (top of the series)
How it was run: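 20 mM phosphate pH 7.0 + 0.01% (detergent screen) or 0.0001% Triton X-100; 5.3 nM AmpC reagent; cpd preinc 15 min RT; nitrocefin (800 uM stock) to start; A480 q20 s × 4 min; Activity was normalised to no-enzyme and no-compound control wells.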
Potency is the fitted concentration of half-maximal effect; tags give direction and shape of the fitted curve.

Sequence of UniProt P00811 (P00811 whole entry, looked up): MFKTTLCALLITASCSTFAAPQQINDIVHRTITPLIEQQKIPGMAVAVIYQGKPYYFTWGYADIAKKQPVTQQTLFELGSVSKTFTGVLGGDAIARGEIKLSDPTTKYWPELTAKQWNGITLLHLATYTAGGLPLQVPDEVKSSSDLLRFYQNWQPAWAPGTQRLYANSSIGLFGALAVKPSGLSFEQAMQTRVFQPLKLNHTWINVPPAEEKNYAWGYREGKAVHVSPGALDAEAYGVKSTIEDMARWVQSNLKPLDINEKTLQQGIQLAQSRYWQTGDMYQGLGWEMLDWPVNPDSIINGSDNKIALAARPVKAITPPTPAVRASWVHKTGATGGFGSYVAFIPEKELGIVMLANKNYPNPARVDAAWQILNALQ

SMILES | Potency | activity change, negative = inhibition
Cn1cc([N+](=O)[O-])c(C(=O)N/N=C/c2ccccc2)n1 | inconclusive [inhibitor, single point] | –
COc1ccccc1CNS(=O)(=O)c1cc2c3c(c1)CCN3C(=O)CC2 | inactive | –
CCOC(Cn1c(-c2ccc(OC)cc2)nc2ccccc21)OCC | inconclusive [inhibitor, single point] | –
Cc1ccc(/C=[N+](/C)[O-])cc1 | inconclusive [inhibitor, partial curve, poor fit] | –
Cc1cc(C)n(-c2nc3ccccc3nc2N2CCOCC2)n1 | inconclusive [inhibitor, full curve, poor fit] | –
C/C(=N\NS(=O)(=O)c1ccc(C)cc1)c1ccc(C)s1 | – | inactive: 0.573%
CC(C)Nc1c([N+](=O)[O-])c(=O)oc2ccccc12 | inconclusive [inhibitor, full curve, poor fit] | –
Cc1ccc(NC(=O)C2CC(=O)N(c3ccc4c(c3)OCCO4)C2)nc1 (stereo unspecified) | inconclusive [inhibitor, partial curve, poor fit] | –
COc1ccc(N2CCN(S(=O)(=O)c3ccc4c(c3)CCCC4)CC2)c([N+](=O)[O-])c1 | – | inactive: 5%
CCOC(=O)c1cnc(SC)nc1Sc1ccc(Cl)cc1Cl | inconclusive [inhibitor, full curve, poor fit] | –
Cn1c(CNc2nc3ccccc3n2C)nc2ccccc21 | – | inactive: -8.8%
CC(=O)c1ccc(NC(=O)c2cc(CC(C)C)on2)cc1 | inconclusive [inhibitor, full curve, poor fit] | –
Cc1ccc(NC(=O)C(=O)NCC(c2cccnc2)N2CCc3ccccc32)cc1Cl (stereo unspecified) | – | inactive: -2.23%
FC(F)Sc1ccc(NC(=S)NC2CCCC2)cc1 | – | inactive: 9.97%
O=[N+]([O-])c1cc(/C=N\Nc2nccs2)ccc1O | inconclusive [inhibitor, partial curve] | –
Cc1ccccc1C1CC(c2ccc(F)cc2)Nc2nc(N)nn21 (stereo unspecified) | inconclusive [inhibitor, full curve, poor fit] | –
Cc1ccc(OCCC(=O)OCC(=O)NC(=O)NC2CCCC2)cc1 | – | inactive: -14.5%
C/C(=N\NC(=O)C(=O)Nc1ccc(C)c(Cl)c1)c1ccncc1 | inconclusive [inhibitor, partial curve] | –
COc1cc(C=O)ccc1OC(=O)c1cccnc1 | inconclusive [inhibitor, partial curve] | –
CC(/C=N/NC(=O)c1ccccn1)=C\c1ccco1 | – | inactive: 11%
CCCCNC(=O)CCCCCNS(=O)(=O)c1ccc(OC)cc1 | – | inactive: -5.91%
CNC1(C(N)=O)CCNCC1 | inconclusive [inhibitor, full curve, poor fit] | –
Cc1cc(C(=O)NCCc2ccccc2)ccc1[N+](=O)[O-] | – | inactive: 0.408%
COc1ccc(S(=O)(=O)N(CCCN2CCCC2=O)Cc2cc3cc(C)c(C)cc3[nH]c2=O)cc1 | inconclusive [inhibitor, full curve, poor fit] | –

SMILES | Potency | activity change, negative = inhibition
Clc1ccc(-n2ncc3c(NCc4ccc5c(c4)OCO5)ncnc32)cc1 | inconclusive [inhibitor, full curve, poor fit] | –
Cc1ccccc1NC(=O)c1cccc(N2C(=O)C3C4CCC(C4)C3C2=O)c1 (stereo unspecified) | – | inactive: 1.69%
CN1C(=O)CS(=O)c2ccc(C(=O)NCCC3=CCCCC3)cc21 (stereo unspecified) | inconclusive [inhibitor, partial curve] | –
Cc1ccccc1C(=O)NC1CC2CCCC(C1)N2Cc1ccccc1 (stereo unspecified) | inconclusive [inhibitor, full curve, poor fit] | –
O=C(OCc1cc2ccccc2[nH]c1=O)C1CCCCC1 | inconclusive [inhibitor, full curve] | –
CC(=O)N1CCN(c2ccc(Oc3ccc([N+](=O)[O-])c(C(F)(F)F)c3)cc2)CC1 | – | inactive: -13.3%
CCOc1ccc(N2CC(C(=O)NCCN3C(=O)S/C(=C/c4cccnc4)C3=O)CC2=O)cc1 (stereo unspecified) | inconclusive [inhibitor, full curve, poor fit] | –
COc1ccc2c(c1)c(C)cc[n+]2Cc1ccccc1 | inconclusive [inhibitor, full curve, poor fit] | –
O=C(CCCN1C(=O)[C@H]2CC=CC[C@H]2C1=O)NCc1nc(-c2ccccc2)no1 | inconclusive [inhibitor, full curve, poor fit] | –
CC(=O)c1ccc(-n2c(C)ccc2-c2ccccc2)cc1 | inconclusive [inhibitor, single point] | –
CSCCC(NC(=O)COc1ccccc1)C(=O)NCCOc1ccccc1 (stereo unspecified) | – | inactive: 5.99%
CCC1(c2ccccc2)NC(=O)N(CC(=O)NC2(C#N)CCCCC2)C1=O (stereo unspecified) | inconclusive [inhibitor, full curve, poor fit] | –
COc1ccc(OC)c(C2=NS(=O)(=O)N(C)C(C(=O)Nc3cccc(C(C)=O)c3)=C2)c1 | inconclusive [inhibitor, full curve, poor fit] | –
CCC(=Nc1ccccc1O)C1=C(O)CC(c2ccccc2)CC1=O (stereo unspecified) | – | inactive: -0.114%
CC1=NN(c2ccccc2)C(=O)C1C(=O)c1ccccc1 (stereo unspecified) | inconclusive [inhibitor, partial curve, poor fit] | –
CC12CCC(=O)N1C(C(=O)Nc1cc(C(F)(F)F)ccc1N1CCCCC1)CS2 (stereo unspecified) | inconclusive [inhibitor, single point] | –
CCSc1ncc(Cl)c(C(=O)Nc2c(C(=O)Nc3ccc(Cl)cc3)oc3ccccc23)n1 | – | inactive: 1.6%
Cc1cccc(C(=O)NC2CCN(S(=O)(=O)c3ccccc3)CC2)c1 | – | inactive: -1.25%
CCCSC1=C(C#N)C(c2ccccc2OCC)CC(=O)N1 (stereo unspecified) | – | inactive: -0.581%
Cc1nc2sc(C(c3ccc(C(C)C)cc3)N3CCN(CCO)CC3)c(O)n2n1 (stereo unspecified) | inconclusive [inhibitor, full curve, poor fit] | –
COc1ccc(CC(=O)Nc2nc(C)cs2)cc1OC | inconclusive [inhibitor, full curve, poor fit] | –
Cc1nn(-c2ncc(C(F)(F)F)cc2Cl)c(=O)n1-c1cccc(Cl)c1 | inconclusive [inhibitor, single point] | –
Cc1c(OC(=O)CNC(=O)OC(C)(C)C)ccc2c3c(c(=O)oc12)CCC3 | inconclusive [inhibitor, single point] | –
CC(=O)NC1C(=O)N=C(SCC(=O)Nc2c(C)cccc2C)NC1=O (stereo unspecified) | inconclusive [inhibitor, full curve, poor fit] | –

SMILES | Potency | activity change, negative = inhibition
NC(=S)NNc1cccc(Cl)c1 | – | inactive: -2.06%
Cc1ccc(OC(=O)c2cccc(S(=O)(=O)N(C)C)c2)c(-n2nc3ccccc3n2)c1 | inconclusive [inhibitor, full curve, poor fit] | –
CN(C)CCCOc1ccc2c(c1)Sc1ccccc1CC2=O | – | inactive: 1.84%
O=C(CCSc1nnnn1-c1ccccc1)N1CCOCC1 | – | inactive: -5.79%
COc1cccc(CNC(=O)Cn2ccc3cc(S(=O)(=O)N4CCCCCC4)ccc32)c1 | – | inactive: -0.112%
CN1CCN(C(=O)CCN2C(=O)/C(=C\c3ccccc3F)SC2=S)CC1 | inconclusive [inhibitor, partial curve] | –
Cc1ccc(-c2csc(NC(=O)c3ccccc3Cl)c2C(=O)O)cc1 | – | inactive: -16%
Cc1c(C)c2ccc(OCC(=O)N3CCC[C@@H]3C(=O)O)c(C)c2oc1=O | inconclusive [inhibitor, full curve, poor fit] | –
CCC(C)NCC(=O)Nc1cc(S(=O)(=O)N(CC)c2ccccc2)ccc1Cl (stereo unspecified) | inconclusive [inhibitor, full curve] | –
CCC(=O)Nc1ccc(/C(C)=N\NS(=O)(=O)c2ccc(C)cc2)cc1 | inconclusive [inhibitor, partial curve] | –
COc1ccc(/C=N/OC(=O)Nc2ccccc2OC)cc1 | – | inactive: -0.686%
O=C(c1ccco1)N1CCN(C(=O)c2cn(-c3ccccc3)nc2-c2ccc(F)cc2)CC1 | inconclusive [inhibitor, partial curve, poor fit] | –
Cc1ccccc1C(=O)NCC(c1ccco1)N1CCc2ccccc2C1 (stereo unspecified) | inconclusive [inhibitor, partial curve, poor fit] | –
Cc1ccc(N2C(=O)C(Cl)=C(NCCO)C2=O)c(C)c1 | inconclusive [inhibitor, single point] | –
O=C(NC(=O)c1ccccc1F)OCc1ccc(Cl)cc1Cl | – | inactive: 3.41%
O=c1c2ccccc2sn1-c1ccccc1 | inconclusive [inhibitor, partial curve, poor fit] | –
O=C(CSc1ccc(-c2ccc(F)cc2)nn1)N1CCCCC1 | inconclusive [inhibitor, full curve, poor fit] | –
COCCCNc1ncnc2c1cnn2-c1ccc(F)cc1 | – | inactive: -5.5%
CNc1ccccc(-c2ccc3cc4c(cc3n2)OCO4)c1=O | inconclusive [inhibitor, partial curve] | –
COc1ccc(S(=O)(=O)NCc2ccncc2)cc1NC(=O)c1ccc(Cl)cc1 | inconclusive [inhibitor, full curve, poor fit] | –
COc1cc(C(=O)NCCc2ccc(S(N)(=O)=O)cc2)ccc1OCc1c(C)noc1C | inconclusive [inhibitor, full curve, poor fit] | –
CN(CC(=O)Nc1cccc(F)c1)C(=O)c1ccc(N2CCCCCC2)c([N+](=O)[O-])c1 | – | inactive: 3.66%
COC(=O)Cn1nc(-c2ccc(C)cc2)c2ccccc2c1=O | inconclusive [inhibitor, single point] | –
